{
  "sequences": {"note": "The chains behind the UniProt entries cited, without tags or fusion partners.", "UniProt Q08024": "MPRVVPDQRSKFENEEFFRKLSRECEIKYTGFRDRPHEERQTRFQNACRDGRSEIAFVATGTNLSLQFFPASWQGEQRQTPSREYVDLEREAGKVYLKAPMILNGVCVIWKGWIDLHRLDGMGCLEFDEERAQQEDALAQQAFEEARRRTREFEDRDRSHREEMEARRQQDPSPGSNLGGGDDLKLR", "UniProt Q01196": "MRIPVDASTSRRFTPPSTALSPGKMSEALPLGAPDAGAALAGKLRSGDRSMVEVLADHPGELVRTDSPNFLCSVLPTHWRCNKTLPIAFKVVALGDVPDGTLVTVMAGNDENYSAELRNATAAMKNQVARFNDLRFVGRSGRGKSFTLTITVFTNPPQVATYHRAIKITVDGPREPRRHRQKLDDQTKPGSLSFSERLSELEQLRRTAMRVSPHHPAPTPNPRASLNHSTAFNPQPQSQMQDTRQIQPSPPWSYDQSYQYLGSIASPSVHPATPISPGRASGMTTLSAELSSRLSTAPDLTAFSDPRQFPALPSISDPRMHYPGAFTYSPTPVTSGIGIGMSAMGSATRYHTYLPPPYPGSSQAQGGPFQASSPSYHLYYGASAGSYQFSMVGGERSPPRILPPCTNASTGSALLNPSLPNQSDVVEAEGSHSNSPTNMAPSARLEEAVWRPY", "UniProt O09106": "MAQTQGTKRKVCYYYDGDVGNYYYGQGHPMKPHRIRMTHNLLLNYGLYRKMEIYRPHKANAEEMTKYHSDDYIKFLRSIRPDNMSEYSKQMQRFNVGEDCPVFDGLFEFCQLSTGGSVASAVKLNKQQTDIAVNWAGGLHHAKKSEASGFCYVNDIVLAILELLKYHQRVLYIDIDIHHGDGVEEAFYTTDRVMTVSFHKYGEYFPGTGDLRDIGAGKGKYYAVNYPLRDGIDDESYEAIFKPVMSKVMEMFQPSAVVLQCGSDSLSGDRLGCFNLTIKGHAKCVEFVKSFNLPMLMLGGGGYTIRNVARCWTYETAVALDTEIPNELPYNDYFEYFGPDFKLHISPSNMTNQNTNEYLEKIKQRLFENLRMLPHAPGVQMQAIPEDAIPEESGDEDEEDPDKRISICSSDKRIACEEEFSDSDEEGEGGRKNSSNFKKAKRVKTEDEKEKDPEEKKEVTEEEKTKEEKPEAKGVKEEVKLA", "UniProt P70288": "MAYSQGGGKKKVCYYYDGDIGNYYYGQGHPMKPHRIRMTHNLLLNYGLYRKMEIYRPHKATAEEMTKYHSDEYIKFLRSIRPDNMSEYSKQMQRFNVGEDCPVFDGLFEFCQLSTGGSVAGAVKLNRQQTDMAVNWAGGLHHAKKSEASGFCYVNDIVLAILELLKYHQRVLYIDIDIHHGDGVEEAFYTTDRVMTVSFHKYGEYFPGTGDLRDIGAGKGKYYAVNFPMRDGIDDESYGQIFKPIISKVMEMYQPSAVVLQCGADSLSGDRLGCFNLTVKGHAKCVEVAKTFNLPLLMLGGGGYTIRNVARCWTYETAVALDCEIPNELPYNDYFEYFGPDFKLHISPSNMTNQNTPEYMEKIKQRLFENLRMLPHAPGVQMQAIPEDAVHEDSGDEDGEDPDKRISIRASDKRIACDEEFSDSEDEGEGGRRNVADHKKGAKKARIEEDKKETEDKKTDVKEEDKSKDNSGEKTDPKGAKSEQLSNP", "UniProt P83917": "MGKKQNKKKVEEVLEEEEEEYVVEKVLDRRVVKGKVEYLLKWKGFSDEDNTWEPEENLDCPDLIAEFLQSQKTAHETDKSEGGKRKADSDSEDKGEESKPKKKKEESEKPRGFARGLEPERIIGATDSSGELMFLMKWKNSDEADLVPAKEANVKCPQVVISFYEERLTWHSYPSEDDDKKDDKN", "UniProt Q03347": "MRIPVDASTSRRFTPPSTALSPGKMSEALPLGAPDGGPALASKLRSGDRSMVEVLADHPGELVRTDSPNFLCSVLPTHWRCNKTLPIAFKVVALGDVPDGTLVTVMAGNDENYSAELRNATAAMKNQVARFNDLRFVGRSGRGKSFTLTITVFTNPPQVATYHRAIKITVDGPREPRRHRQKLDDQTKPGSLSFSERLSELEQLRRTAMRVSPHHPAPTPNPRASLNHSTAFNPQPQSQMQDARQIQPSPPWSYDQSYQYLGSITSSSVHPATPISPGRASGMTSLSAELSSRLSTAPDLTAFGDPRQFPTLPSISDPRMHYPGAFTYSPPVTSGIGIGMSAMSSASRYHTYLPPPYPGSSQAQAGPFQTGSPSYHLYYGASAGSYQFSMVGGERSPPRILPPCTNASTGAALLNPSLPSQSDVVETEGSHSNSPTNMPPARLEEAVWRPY", "UniProt P08659": "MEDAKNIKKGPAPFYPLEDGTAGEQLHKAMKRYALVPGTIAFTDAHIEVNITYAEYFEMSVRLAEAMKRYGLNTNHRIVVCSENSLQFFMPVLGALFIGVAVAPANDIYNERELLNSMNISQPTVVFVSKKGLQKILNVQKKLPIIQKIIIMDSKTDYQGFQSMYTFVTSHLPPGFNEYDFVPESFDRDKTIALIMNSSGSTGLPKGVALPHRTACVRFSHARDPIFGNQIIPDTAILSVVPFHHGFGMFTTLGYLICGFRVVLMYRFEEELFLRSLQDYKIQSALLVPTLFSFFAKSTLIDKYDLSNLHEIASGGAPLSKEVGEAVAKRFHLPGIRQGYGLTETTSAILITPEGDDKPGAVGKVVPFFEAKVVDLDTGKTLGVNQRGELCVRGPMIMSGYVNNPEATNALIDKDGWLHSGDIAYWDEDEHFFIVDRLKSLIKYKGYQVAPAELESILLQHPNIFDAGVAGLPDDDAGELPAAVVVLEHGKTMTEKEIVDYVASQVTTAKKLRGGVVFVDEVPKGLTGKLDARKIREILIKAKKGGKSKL"},
  "source": "paper PMC2828485",
  "key": {"[1]": {"target": "T1, Myf5 (endogenous, C2C12) (mouse (endogenous in C2C12)) (UniProt P24699)", "T1 sequence": "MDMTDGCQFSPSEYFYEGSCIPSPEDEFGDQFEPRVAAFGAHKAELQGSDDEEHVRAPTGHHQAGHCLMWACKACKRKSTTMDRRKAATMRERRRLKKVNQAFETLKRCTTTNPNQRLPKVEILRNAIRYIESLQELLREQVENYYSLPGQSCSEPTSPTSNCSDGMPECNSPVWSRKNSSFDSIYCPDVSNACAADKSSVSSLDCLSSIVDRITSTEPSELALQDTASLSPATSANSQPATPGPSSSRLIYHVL", "test": "co-IP; endogenous proteins, nuclear extracts of proliferating C2C12 myoblasts (compared with differentiating ones); IP with anti-MyoD or anti-Myf5, beads or normal rabbit IgG as controls; western blot for CBFβ"}, "3HA-MyoD Cter 241-318": {"target": "T2, 3HA-MyoD Cter 241-318 (UniProt P10085)", "T2 sequence": "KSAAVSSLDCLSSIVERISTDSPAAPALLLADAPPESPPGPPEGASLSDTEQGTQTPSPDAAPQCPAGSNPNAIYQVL", "test": "co-IP; HEK 293 co-transfected with pCMV-3HA-MyoD or a deletion mutant, pcDNA3-Runx1 and pcDNA3-CBFβ; lysis 48 h later in 300 mM NaCl, 50 mM Tris-HCl pH 7.5, 0.4% NP-40, 10 mM MgCl2; anti-HA IP; western blot"}, "3HA-MyoD Nter 1-66": {"target": "T3, 3HA-MyoD Nter 1-66 (UniProt P10085)", "T3 sequence": "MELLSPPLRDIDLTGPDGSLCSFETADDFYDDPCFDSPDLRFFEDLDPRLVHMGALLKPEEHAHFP", "test": "co-IP; HEK 293 co-transfected with pCMV-3HA-MyoD or a deletion mutant, pcDNA3-Runx1 and pcDNA3-CBFβ; lysis 48 h later in 300 mM NaCl, 50 mM Tris-HCl pH 7.5, 0.4% NP-40, 10 mM MgCl2; anti-HA IP; western blot"}, "3HA-MyoD bHLH 82-172": {"target": "3HA-MyoD bHLH 82-172 (UniProt P10085)", "test": "co-IP; HEK 293 co-transfected with pCMV-3HA-MyoD or a deletion mutant, pcDNA3-Runx1 and pcDNA3-CBFβ; lysis 48 h later in 300 mM NaCl, 50 mM Tris-HCl pH 7.5, 0.4% NP-40, 10 mM MgCl2; anti-HA IP; western blot"}, "3HA-MyoD ΔCter 1-240": {"target": "3HA-MyoD ΔCter 1-240 (UniProt P10085)", "test": "co-IP; HEK 293 co-transfected with pCMV-3HA-MyoD or a deletion mutant, pcDNA3-Runx1 and pcDNA3-CBFβ; lysis 48 h later in 300 mM NaCl, 50 mM Tris-HCl pH 7.5, 0.4% NP-40, 10 mM MgCl2; anti-HA IP; western blot"}, "[2]": {"target": "Flag-HA-CBFβ (stably expressed in HeLa) (mouse) (UniProt Q08024)", "test": "co-IP; Flag M2 resin IP of Flag-HA-CBFβ from 1.5 mg nuclear extract of HeLa-CBFβ cells 24 h after transfection of HA-MyoD and/or HA-Runx1; overnight 4°C; washes in TEGN (150 mM NaCl, 0.5% NP-40); Flag peptide elution; anti-HA western blot"}, "[3]": {"target": "Flag-HA-CBFβ (stably expressed in C2C12) (mouse) (UniProt Q08024)", "test": "co-IP; simple-affinity purification on Flag resin of Flag-HA-CBFβ from proliferating C2C12-CBFβ cells (3 g pellet) against C2C12 control cells; western blot"}, "Flag-HA-MyoD": {"target": "Flag-HA-MyoD (UniProt P10085)", "test": "co-IP; double-affinity purified Flag-HA-MyoD complex from HeLa (soluble and chromatin-associated fractions) against mock eluate, western blot"}, "GST-MyoD": {"target": "GST-MyoD (UniProt P10085)", "test": "pull-down; GST or GST-MyoD (1 µg) on agarose beads with 10 µL of one 35S-labelled TNT reaction; 50 mM Tris pH 7.6, 150 mM NaCl, 0.1% Triton, 2 h 4°C; washes 300 mM NaCl, 0.5% Triton; autoradiography; only the target purified"}, "[4]": {"target": "3HA-MyoD wild-type (pCMV-3HA-MyoD) (UniProt P10085)", "test": "co-IP; HEK 293 co-transfected with pCMV-3HA-MyoD or a deletion mutant, pcDNA3-Runx1 and pcDNA3-CBFβ; lysis 48 h later in 300 mM NaCl, 50 mM Tris-HCl pH 7.5, 0.4% NP-40, 10 mM MgCl2; anti-HA IP; western blot"}, "3HA-MyoD ΔNter 82-318": {"target": "3HA-MyoD ΔNter 82-318 (UniProt P10085)", "test": "co-IP; HEK 293 co-transfected with pCMV-3HA-MyoD or a deletion mutant, pcDNA3-Runx1 and pcDNA3-CBFβ; lysis 48 h later in 300 mM NaCl, 50 mM Tris-HCl pH 7.5, 0.4% NP-40, 10 mM MgCl2; anti-HA IP; western blot"}},
  "note": "No constants are given. Whether binding was seen depends on the method and setting. In cells and extracts the contact can be indirect. Some results given as binding are weak or reduced against the parent protein; the word gives no strength.",
  "data": [
    {"substance": "CBFβ (endogenous, C2C12) (from UniProt Q08024 1-187)", "values": [
      {"measurement": "binding", "setting": "[1]", "value": "binds"}
    ]},
    {"substance": "CBFβ (pcDNA3-CBFβ, expressed in HEK 293) (from UniProt Q08024 1-187)", "values": [
      {"measurement": "binding", "setting": "3HA-MyoD Cter 241-318", "value": "no binding"},
      {"measurement": "binding", "setting": "3HA-MyoD Nter 1-66", "value": "no binding"},
      {"measurement": "binding", "setting": "3HA-MyoD bHLH 82-172", "value": "no binding"},
      {"measurement": "binding", "setting": "3HA-MyoD ΔCter 1-240", "value": "no binding"}
    ]},
    {"substance": "HA-tagged Runx1 (pRcCMV-HA-Runx1) (from UniProt Q01196 1-453)", "values": [
      {"measurement": "binding", "setting": "[2]", "value": "binds"}
    ]},
    {"substance": "HDAC1 (endogenous, C2C12) (from UniProt O09106 1-482) (enzyme)", "values": [
      {"measurement": "binding", "setting": "[3]", "value": "binds"}
    ]},
    {"substance": "HDAC2 (endogenous, C2C12) (from UniProt P70288 1-488) (enzyme)", "values": [
      {"measurement": "binding", "setting": "[3]", "value": "binds"}
    ]},
    {"substance": "HP1β (endogenous, C2C12) (from UniProt P83917 1-185)", "values": [
      {"measurement": "binding", "setting": "[3]", "value": "binds"}
    ]},
    {"substance": "Runx1 (endogenous, C2C12) (from UniProt Q03347 1-451)", "values": [
      {"measurement": "binding", "setting": "[3]", "value": "binds"}
    ]},
    {"substance": "Runx1 (endogenous, HeLa) (from UniProt Q01196 1-453)", "values": [
      {"measurement": "binding", "setting": "Flag-HA-MyoD", "value": "binds"}
    ]},
    {"substance": "Runx1 (in vitro translated from pcDNA3-Runx1) (from UniProt Q01196 1-453)", "values": [
      {"measurement": "binding", "setting": "GST-MyoD", "value": "binds"}
    ]},
    {"substance": "Runx1 (pcDNA3-Runx1, expressed in HEK 293) (from UniProt Q01196 1-453)", "values": [
      {"measurement": "binding", "setting": "3HA-MyoD Cter 241-318", "value": "no binding"},
      {"measurement": "binding", "setting": "3HA-MyoD Nter 1-66", "value": "no binding"},
      {"measurement": "binding", "setting": "3HA-MyoD bHLH 82-172", "value": "no binding"},
      {"measurement": "binding", "setting": "[4]", "value": "binds"},
      {"measurement": "binding", "setting": "3HA-MyoD ΔCter 1-240", "value": "no binding"},
      {"measurement": "binding", "setting": "3HA-MyoD ΔNter 82-318", "value": "binds"}
    ]},
    {"substance": "luciferase (in vitro translated) (from UniProt P08659 1-550) (enzyme)", "values": [
      {"measurement": "binding", "setting": "GST-MyoD", "value": "no binding"}
    ]}
  ]
}
